The IC50 comes from the fitted curve, where viability falls to half of the control; where the fit passes the top or lowest dose, that dose stands as a limit. AUC sums up the same curve from the lowest dose to the 256-fold higher top dose: 1 means no effect, lower means more sensitive. Any top dose called inferred comes from the curve model; the source does not state it.
Compound: N.N.[Cl][Pt][Cl] [Cisplatin]
Assay: Viability of human cancer cell lines after 72 h of drug (GDSC screen)
Settings: top dose inferred
Experimental: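 Human cancer cell lines in 384-well plates, medium with 10% serum, drug for 72 h over a 256-fold dose range (nine 2-fold or five 4-fold steps up to the top dose). Adherent lines were fixed and stained with the nucleic acid dye Syto60, suspension lines read with resazurin; signal relative to control wells, capped at 0 and 100%. One two-parameter sigmoid per drug and line, fitted in a mixed model over all curves with the slope shared within a line.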

| Cell Line | AUC | IC50 |
| --- | --- | --- |
| CA46 (Burkitt lymphoma, suspension, top dose 10 µM) | 0.972 | > 10 µM |
| CADO-ES1 (Ewing sarcoma, suspension, top dose 10 µM) | 0.851 | 7.84 µM |
| CAKI-1 (kidney, adherent, top dose 10 µM) | 0.815 | 9.5 µM |
| CAL-12T (non-small cell lung carcinoma, adherent, top dose 10 µM) | 0.981 | > 10 µM |
| CAL-27 (head and neck, adherent, top dose 10 µM) | 0.813 | 5.51 µM |
| CAL-29 (bladder, adherent, top dose 10 µM) | 0.847 | 8.27 µM |
| CAL-33 (head and neck, adherent, top dose 10 µM) | 0.831 | 6.33 µM |
| CAL-39 (cervix, adherent, top dose 10 µM) | 0.926 | > 10 µM |
| CAL-51 (breast, adherent, top dose 10 µM) | 0.883 | 8.22 µM |
| CAL-62 (thyroid, adherent, top dose 10 µM) | 0.921 | > 10 µM |
| CAL-72 (osteosarcoma, adherent, top dose 10 µM) | 0.909 | > 10 µM |
| CAL-78 (chondrosarcoma, adherent, top dose 10 µM) | 0.895 | > 10 µM |
| CAL-85-1 (breast, adherent, top dose 10 µM) | 0.945 | > 10 µM |
| CAL-120 (breast, adherent, top dose 10 µM) | 0.939 | > 10 µM |
| CAPAN-1 (pancreas, adherent, top dose 10 µM) | 0.812 | 6.11 µM |
| CAS-1 (glioma, adherent, top dose 10 µM) | 0.952 | > 10 µM |
| CCF-STTG1 (glioma, adherent, top dose 10 µM) | 0.925 | > 10 µM |
| CCK-81 (large intestine, adherent, top dose 10 µM) | 0.99 | > 10 µM |
| CCRF-CEM (lymphoblastic leukaemia, suspension, top dose 10 µM) | 0.808 | 4.19 µM |
| CESS (acute myeloid leukaemia, suspension, top dose 10 µM) | 0.948 | > 10 µM |

| Cell Line | AUC | IC50 |
| --- | --- | --- |
| CFPAC-1 (pancreas, adherent, top dose 10 µM) | 0.925 | > 10 µM |
| CGTH-W-1 (thyroid, adherent, top dose 10 µM) | 0.683 | 2.02 µM |
| CHL-1 (melanoma, adherent, top dose 10 µM) | 0.848 | 6.78 µM |
| CHP-126 (neuroblastoma, suspension, top dose 10 µM) | 0.843 | 7.36 µM |
| CHP-212 (neuroblastoma, adherent, top dose 10 µM) | 0.806 | 4.61 µM |
| CHSA0011 (chondrosarcoma, adherent, top dose 10 µM) | 0.943 | > 10 µM |
| CHSA0108 (chondrosarcoma, adherent, top dose 6 µM) | 0.892 | > 6 µM |
| CHSA8926 (chondrosarcoma, adherent, top dose 10 µM) | 0.845 | > 10 µM |
| CL-11 (large intestine, adherent, top dose 10 µM) | 0.955 | > 10 µM |
| CL-34 (large intestine, adherent, top dose 6 µM) | 0.98 | > 6 µM |
| CL-40 (large intestine, adherent, top dose 10 µM) | 0.972 | > 10 µM |
| CMK (acute myeloid leukaemia, suspension, top dose 10 µM) | 0.877 | 7.47 µM |
| CML-T1 (chronic myeloid leukaemia, suspension, top dose 10 µM) | 0.882 | 7.52 µM |
| COLO-205 (large intestine, suspension, top dose 10 µM) | 0.976 | > 10 µM |
| COLO-320-HSR (large intestine, suspension, top dose 10 µM) | 0.93 | > 10 µM |
| COLO-668 (small cell lung carcinoma, adherent, top dose 10 µM) | 0.956 | > 10 µM |
| COLO-678 (large intestine, semi-adherent, top dose 10 µM) | 0.975 | > 10 µM |
| COLO-679 (melanoma, adherent, top dose 10 µM) | 0.87 | > 10 µM |
| COLO-680N (oesophagus, adherent, top dose 10 µM) | 0.943 | > 10 µM |
| COLO-684 (endometrium, suspension, top dose 10 µM) | 0.961 | > 10 µM |

| Cell Line | AUC | IC50 |
| --- | --- | --- |
| COLO-783 (melanoma, adherent, top dose 10 µM) | 0.945 | > 10 µM |
| COLO-800 (melanoma, adherent, top dose 10 µM) | 0.902 | > 10 µM |
| COLO-824 (breast, adherent, top dose 10 µM) | 0.986 | > 10 µM |
| COR-L23 (large cell lung carcinoma, adherent, top dose 10 µM) | 0.816 | 5.35 µM |
| COR-L88 (small cell lung carcinoma, adherent, top dose 10 µM) | 0.981 | > 10 µM |
| COR-L95 (small cell lung carcinoma, adherent, top dose 10 µM) | 0.914 | > 10 µM |
| COR-L279 (small cell lung carcinoma, suspension, top dose 10 µM) | 0.81 | 4.58 µM |
| COR-L321 (lung, suspension, top dose 10 µM) | 0.984 | > 10 µM |
| CP50-MEL-B (melanoma, adherent, top dose 10 µM) | 0.959 | > 10 µM |
| CP66-MEL (melanoma, adherent, top dose 10 µM) | 0.937 | > 10 µM |
| CPC-N (small cell lung carcinoma, suspension, top dose 10 µM) | 0.905 | > 10 µM |
| CRO-AP2 (B-cell lymphoma, suspension, top dose 10 µM) | 0.711 | 2.24 µM |
| CS1 (bone, adherent, top dose 10 µM) | 0.765 | 4.08 µM |
| CTB-1 (B-cell lymphoma, suspension, top dose 10 µM) | 0.834 | > 10 µM |
| CTV-1 (acute myeloid leukaemia, suspension, top dose 10 µM) | 0.844 | 5.17 µM |
| CW-2 (large intestine, adherent, top dose 10 µM) | 0.92 | > 10 µM |
| Ca9-22 (head and neck, adherent, top dose 10 µM) | 0.874 | 8.5 µM |
| Ca-Ski (cervix, adherent, top dose 10 µM) | 0.734 | 3.18 µM |
| CaR-1 (large intestine, adherent, top dose 10 µM) | 0.978 | > 10 µM |
| Calu-3 (lung adenocarcinoma, adherent, top dose 10 µM) | 0.977 | > 10 µM |

Source: the supplement of paper PMC4967469
